From PubChem BioAssay AID504466 (National Center for Advancing Translational Sciences (NCATS), 2011)
Among all 330,000 compounds or so, about 4,200 (1.3%) were called active. Inconclusive results, whose numbers are uncertain, are shown with a selection of clear calls. The call rests on the fitted dose curve; in most records, active means well fitted activation curve with a large enough effect; inconclusive means small, poorly fitted or top-dose-only effect; inactive means no such curve, though single readings can be large or run the other way. Potencies beside an inconclusive call are fits to weak or partial responses and may not hold up.

Experiment: qHTS screen for small molecules that induce genotoxicity in human embryonic kidney (HEK293T) cells expressing luciferase-tagged ELG1; further: nearly all actives have a fitted effect of over 60% in size
Conditions: HEK293T ELG1-luciferase reporter, luminescence, 16 h; series mostly up to 46 µM
Procedure, shortened: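 Cells (2,000/well) expressing the ELG1-luciferase fusion are dosed by pin tool and kept 16 hr at 37 °C, 5% CO2. Signal comes from ONE-Glo luciferase reagent after 30 min at room temperature.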
Potency means the concentration at half of the fitted maximal effect; tags describe the fitted curve by direction and shape.

Row | Compound | Potency
1 | O=C(Oc1cccc([N+](=O)[O-])c1)c1ccc2c(=O)n3c(nc2c1)CCC3 | inactive
2 | COc1cccc(N2CCN(C(=O)c3ccc4ccccc4c3)CC2)c1 | inactive
3 | CCC(=O)NC(c1cccs1)c1ccc2cccnc2c1O (stereo not given) | inactive
4 | O=C(COC(=O)Cn1cnc2ccccc21)Nc1ccc(F)c(F)c1 | inconclusive: 0.184 µM [activator, single point]
5 | CCC(=O)Nc1ccc(Nc2nc(C)c([N+](=O)[O-])c(Nc3ccc(NC(=O)CC)cc3)n2)cc1 | inactive
6 | O=C(COc1ccc(Cl)cc1[N+](=O)[O-])NC1CCCCC1 | inconclusive: 11.6 µM [activator, partial curve]
7 | CCNc1nc(NC(C)CC)nc(Oc2ccc(OCC)nn2)n1 (stereo not given) | inconclusive: 8.2 µM [activator, partial curve]
8 | C=COC(=O)CSc1nc(-c2cccs2)ccc1C#N | inconclusive: 2.06 µM [activator, partial curve]
9 | Cc1[nH]c2ccc(C(=O)NCc3ccccn3)cc2c1C | inconclusive: 20.6 µM [activator, partial curve, poor fit]
10 | COc1ccc(O)c(/C=C(\C#N)C(=O)Nc2cccnc2)c1 | inconclusive: 18.4 µM [activator, partial curve, poor fit]
11 | CCC(C)NC(=O)CSc1ccc(S(=O)(=O)N2CCN(Cc3ccccc3)CC2)cn1 (stereo not given) | inactive
12 | O=C(CSC(=S)N1CCCC1)c1ccccc1 | active: 0.58 µM
13 | Cc1onc(-c2ccccc2)c1C(=O)OCC(=O)N(CC(C)C)c1c(N)n(Cc2ccccc2)c(=O)[nH]c1=O | inactive
14 | Fc1ccccc1Nc1nc2c(s1)CCc1ccccc1-2 | active: 8.2 µM
15 | Cc1c(C(=O)Nc2nc3ccccc3[nH]2)oc2c(Cl)cccc12 | inconclusive: 20.6 µM [activator, single point]
16 | Cn1cc([N+](=O)[O-])c(C(=O)Nc2ccc(-c3nc4ccccc4[nH]3)cc2)n1 | inconclusive: 13 µM [activator, partial curve, poor fit]
17 | Cn1ccc(C(=O)N/N=C/c2cccnc2)n1 | inactive
18 | CC(C)NC(=O)CSc1nc2[nH]ncc2c(=O)[nH]1 | inconclusive: 2.91 µM [activator, partial curve, poor fit]
19 | c1ccc(CSc2nc3ncncc3[nH]2)cc1 | inactive
20 | O=C1/C(=C/c2cccs2)COc2ccccc21 | inconclusive: 29.1 µM [activator, single point]
21 | CCOC(=O)N/N=C/c1ccccc1OCc1ccc(Cl)cc1 | inactive
22 | O=C(Nc1cc2c(cc1Cl)OCCCO2)c1ccccc1 | active: 6.31 µM
23 | CCOC(=O)C(C(=O)OCC)c1cc(Br)c2noc3c2c1C(=O)c1ccccc1-3 | inconclusive: 6.51 µM [activator, partial curve, poor fit]
24 | COc1ccc(NC(=O)Cn2c(=O)n(-c3ccc(CC(=O)NCc4ccco4)cc3)c(=O)c3ccccc32)cc1 | inconclusive: 20.6 µM [activator, single point]
25 | COc1ccc(-c2nn(-c3ccccc3)cc2/C=N/Nc2ccccn2)cc1 | inconclusive: 20.6 µM [activator, partial curve, poor fit]

Row | Compound | Potency
26 | O=C(COC(=O)CNC(=O)C1CCCCC1)NCc1ccc(Cl)cc1 | inactive
27 | Cc1ccc2nc(NC(=S)NC(=O)c3ccco3)sc2c1 | inconclusive: 9.2 µM [activator, partial curve]
28 | O=C(OCC(=O)N1CCN(C(=O)COC(=O)c2ccc(O)cc2O)CC1)c1ccc(O)cc1O | inactive
29 | CCN1CCN(S(=O)(=O)c2ccc(Cl)c(C(=O)N(C)CCOc3ccc(Cl)cc3)c2)CC1 | inconclusive: 20.6 µM [activator, single point]
30 | CN(Cc1ccsc1)C(=O)Cn1cc(Br)ccc1=O | inconclusive: 23.1 µM [activator, partial curve, poor fit]
31 | CCOC(=O)c1ccc(NCn2c(=O)oc3ccccc32)cc1 | inconclusive: 20.6 µM [activator, partial curve, poor fit]
32 | CCOC(=O)c1c(C)[nH]c(C(=O)COC(=O)[C@H](C)NC(=O)c2ccccc2Cl)c1C | inconclusive: 23.1 µM [activator, partial curve, poor fit]
33 | Cn1c(=O)n(C)c2cc(NC(=O)C(F)(F)F)ccc21 | inconclusive: 20.6 µM [activator, partial curve, poor fit]
34 | Cn1c(=O)cc(SCC(=O)N2CCOCC2)c2ccc(Cl)cc21 | inconclusive: 20.6 µM [activator, partial curve, poor fit]
35 | Cc1ccc(NC(=O)C(=O)NCCCN2CCCC2=O)cc1 | active: 2.06 µM
36 | O=C(N/N=C\c1ccc([N+](=O)[O-])o1)C1COc2ccccc2O1 (stereo not given) | inconclusive: 23.1 µM [activator, partial curve, poor fit]
37 | Cc1nn(-c2ccccc2Cl)c2sc(C(=O)Nc3nnc(C4CC4)s3)cc12 | inconclusive: 20.6 µM [activator, partial curve, poor fit]
38 | Cc1cc(C(=O)N/N=C/c2c[nH]c3ccccc23)c(C)o1 | inactive
39 | C=CCn1c(SCC(=O)NC2CCS(=O)(=O)C2)nnc1-c1cc2c(s1)CCC(CC)C2 (stereo not given) | inactive
40 | CC(=O)Nc1ccc(Nc2nc(-c3cc4ccccc4oc3=O)cs2)cc1 | inconclusive: 20.6 µM [activator, single point]
41 | CC1CCOC(c2coc3ccccc3c2=O)O1 (stereo not given) | inconclusive: 13 µM [activator, partial curve, poor fit]
42 | Cc1ccc(NC(=O)C2CCC(CNc3c(N4CCC(C)CC4)c(=O)c3=O)CC2)cc1F (stereo not given) | inactive
43 | O=c1[nH]c(COc2ccc(Cl)cc2Cl)nc2ccccc12 | active: 9.2 µM
44 | CCOC(=O)C(=O)CC(=O)c1ccc2c(c1)OCCO2 | inconclusive: 14.6 µM [activator, partial curve, poor fit]
45 | Cc1ccccc1NC(=O)c1ccccc1NC(=O)Cc1cccc2ccccc12 | inactive
46 | CCOc1cccc(CNCc2ccc(C(=O)O)cc2)c1 | inconclusive: 29.1 µM [activator, partial curve, poor fit]
47 | O=[N+]([O-])c1ccccc1N/N=C/c1cccc(O)c1O | active: 10.3 µM
48 | COC(=O)C(Cc1ccc(OC(=O)c2ccccc2Cl)cc1)N1Cc2ccccc2C1=O (stereo not given) | inactive
49 | O=C(Nc1ccc2c(c1)CCC2)c1cccs1 | inconclusive: 2.59 µM [activator, full curve]
50 | Cc1cccc(-c2nnc(NC(=O)c3ccco3)s2)c1 | active: 20.6 µM

Row | Compound | Potency
51 | Cc1cc(C)c(-c2csc(NC(=O)CCCc3nc4ccccc4c(=O)[nH]3)n2)c(C)c1 | inconclusive: 32.6 µM [activator, single point]
52 | CN(C)CCSc1nnc(-c2ccccc2)o1 | active: 13 µM
53 | Cc1nc2ccc(NC(=O)N3CCCCC3)cc2s1 | inconclusive: 18.4 µM [activator, partial curve]
54 | CCOc1ccc(N(CC(=O)N2CCOCC2)S(=O)(=O)c2ccc(SC)cc2)cc1 | inactive
55 | Cc1cccc(OCC(=O)NCC(=O)N/N=C/c2c(C)[nH]c3ccccc23)c1 | inactive
56 | CCOc1cccc(C(=O)Nc2nnc(-c3cccs3)s2)c1 | active: 1.16 µM
57 | O=C(C[n+]1cccc(C(=O)N/N=C/c2cccc([N+](=O)[O-])c2)c1)c1ccccc1 | inactive
58 | COC1=CC(=O)CC(C)C12Oc1cc(OC)cc(OC)c1C2=O (stereo not given) | inactive
59 | CNC(=O)c1c(NC(=O)C2=COCCO2)sc2c1CCCC2 | inactive
60 | C/C(=N/NC(=O)c1ccoc1C)c1ccc(NC(=O)c2ccncc2)cc1 | inconclusive: 14.6 µM [activator, partial curve, poor fit]
61 | COc1ccc(NC(=O)NNC(=O)C(C)Oc2ccc3ccccc3c2)cc1 (stereo not given) | inactive
62 | CCc1noc(C)c1C(=O)Nc1ccccc1C(C)(C)C | inactive
63 | CCN(CC(=O)NC1CCS(=O)(=O)C1)S(=O)(=O)c1cc(Br)ccc1Br (stereo not given) | inactive
64 | CCOc1ccc2nc(NC(=O)c3ccoc3C)sc2c1 | inconclusive: 0.366 µM [activator, full curve, poor fit]
65 | Clc1ccc(OCc2cn3ccccc3n2)c2ncccc12 | inconclusive: 10.3 µM [activator, partial curve]
66 | COc1ccc(OC)c(C(=O)COC(=O)c2cccnc2SC)c1 | inactive
67 | O=C(CSCc1ccccc1)N1CCN(c2cccc(C(F)(F)F)c2)CC1 | inactive
68 | Cc1ccc(/C=C/C(=O)Nc2ccc(N(C)C)cc2)o1 | inconclusive: 13 µM [activator, partial curve]
69 | Oc1oc(-c2ccc(Br)cc2)nc1/C=N/c1ccccn1 | inconclusive: 16.4 µM [activator, partial curve]
70 | COC(=O)c1sccc1N/N=C(\C)c1ccc(F)c(Cl)c1 | inconclusive: 29.1 µM [activator, partial curve, poor fit]
71 | CCOC(=O)[C@H]1[C@H]2COc3ccccc3[C@@H]2N2C(=O)c3cc(F)c(F)cc3NC(=O)[C@@]12C | inactive
72 | Cc1cc(N=Cc2c(O)n(-c3ccc4c(c3)OCO4)c(=O)c3ccccc23)ccn1 | inconclusive: 18.4 µM [activator, partial curve, poor fit]
73 | Cc1cccc(-c2nc(CS(=O)CC(=O)NCCc3ccc(Cl)cc3)c(C)o2)c1 (stereo not given) | inactive
74 | N#Cc1ccc(C(=O)Nc2cccc(S(=O)(=O)NC3=NCCC3)c2)cc1 | inactive
75 | O=C(N/N=C/c1c[nH]c2ccccc12)c1cc(Br)ccc1O | inactive
